{"source": "paper PMC4336329", "about": "(PLoS ONE, 2015)", "note": "The campaign covered roughly 310,000 compounds. About 14,000 (4.5%) showed an effect of 50% or more. The effect is printed as a negative number. This is one part of the list.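 Further: peak tail current of the secondary pulse compared with the same well before compound.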", "data": [{"biological_target": "human ether-à-go-go-related gene (hERG) potassium channel (human, UniProt Q12809)", "sequence (Q12809 whole entry, looked up)": "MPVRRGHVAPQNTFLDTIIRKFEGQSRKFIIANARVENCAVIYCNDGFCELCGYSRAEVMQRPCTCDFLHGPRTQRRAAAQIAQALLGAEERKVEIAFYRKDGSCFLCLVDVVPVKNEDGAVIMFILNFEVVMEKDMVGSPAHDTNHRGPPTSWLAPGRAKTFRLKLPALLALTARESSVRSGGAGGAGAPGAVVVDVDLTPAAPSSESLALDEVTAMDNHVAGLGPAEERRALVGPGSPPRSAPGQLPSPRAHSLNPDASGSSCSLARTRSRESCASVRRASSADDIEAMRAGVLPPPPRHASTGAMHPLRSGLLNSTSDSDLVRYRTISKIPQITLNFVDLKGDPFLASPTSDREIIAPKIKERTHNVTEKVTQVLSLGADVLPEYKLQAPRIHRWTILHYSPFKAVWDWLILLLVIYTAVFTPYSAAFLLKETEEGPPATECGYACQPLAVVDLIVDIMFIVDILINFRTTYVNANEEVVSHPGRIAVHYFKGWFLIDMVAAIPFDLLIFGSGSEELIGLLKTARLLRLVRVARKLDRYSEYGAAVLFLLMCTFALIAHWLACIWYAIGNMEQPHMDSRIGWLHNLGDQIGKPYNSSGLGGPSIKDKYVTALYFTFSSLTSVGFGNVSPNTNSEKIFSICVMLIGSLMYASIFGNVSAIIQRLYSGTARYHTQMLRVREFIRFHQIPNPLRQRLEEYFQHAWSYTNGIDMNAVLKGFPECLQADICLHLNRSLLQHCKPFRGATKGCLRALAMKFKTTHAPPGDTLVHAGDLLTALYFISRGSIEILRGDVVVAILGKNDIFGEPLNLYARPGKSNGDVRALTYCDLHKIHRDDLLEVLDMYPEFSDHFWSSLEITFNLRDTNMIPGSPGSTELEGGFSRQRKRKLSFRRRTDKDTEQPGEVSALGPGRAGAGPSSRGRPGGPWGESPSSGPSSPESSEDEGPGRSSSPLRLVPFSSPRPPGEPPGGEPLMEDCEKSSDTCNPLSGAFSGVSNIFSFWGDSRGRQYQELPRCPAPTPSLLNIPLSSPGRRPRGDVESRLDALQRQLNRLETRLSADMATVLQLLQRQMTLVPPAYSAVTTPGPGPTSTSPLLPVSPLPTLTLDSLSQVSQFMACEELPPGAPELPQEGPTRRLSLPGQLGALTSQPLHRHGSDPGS", "test": "primary screen, population patch clamp on CHO cells stably expressing hERG", "units": {"hERG current change (%, negative = inhibition) at 10uM": "%"}, "values": [{"compound": "Cc1ccc(N2C(=O)NC(=O)/C(=C/c3cnn(-c4ccc(C)cc4)c3)C2=O)cc1", "hERG current change (%, negative = inhibition) at 10uM": 26.1}, {"compound": "Brc1c(-c2ccccc2)nc2n1Cc1ccccc1-2", "hERG current change (%, negative = inhibition) at 10uM": 21.8}, {"compound": "COc1ccc(CNC(=O)CCC(=O)N2CCN(S(=O)(=O)c3ccc(Cl)cc3)CC2)cc1", "hERG current change (%, negative = inhibition) at 10uM": 22.3}, {"compound": "CN1CCc2c(sc(NC(=O)c3ccco3)c2C(N)=O)C1.Cl", "hERG current change (%, negative = inhibition) at 10uM": -17}, {"compound": "Cc1ccn2cc(-c3ccc4c(c3)NC(=O)CO4)nc2c1.Cl", "hERG current change (%, negative = inhibition) at 10uM": 2.71}, {"compound": "O=C(O)C(=O)O.O=[N+]([O-])c1ccc(OCCN2CCNCC2)cc1", "hERG current change (%, negative = inhibition) at 10uM": -76}, {"compound": "O=C(CSc1ncccn1)NC1CCCc2ccccc21", "note": "(centres unmarked)", "hERG current change (%, negative = inhibition) at 10uM": -1.51}, {"compound": "Cc1ccc(S(=O)(=O)c2cc3ccccc3nc2N)cc1", "hERG current change (%, negative = inhibition) at 10uM": 12.3}, {"compound": "CCc1nccn1CCC(=O)NC1CCCc2c1cnn2-c1ccc(F)cc1F", "note": "(centres unmarked)", "hERG current change (%, negative = inhibition) at 10uM": 20.3}, {"compound": "CC(OC(=O)CCN=C1NS(=O)(=O)c2ccccc21)C(=O)Nc1ccc(S(N)(=O)=O)cc1", "note": "(centres unmarked)", "hERG current change (%, negative = inhibition) at 10uM": -12.1}, {"compound": "Cc1cc(-c2nnc(CCC(=O)NC(c3ccccc3)c3ccccc3)o2)no1", "hERG current change (%, negative = inhibition) at 10uM": 26.5}, {"compound": "O=C(NCC(c1ccco1)N1CCCC1)c1cccc(NS(=O)(=O)c2ccc(Br)cc2)c1", "note": "(centres unmarked)", "hERG current change (%, negative = inhibition) at 10uM": -27.5}, {"compound": "CCCC(CCC(=O)Nc1ccc(C(=O)OCC)cc1)C(=O)O", "note": "(centres unmarked)", "hERG current change (%, negative = inhibition) at 10uM": 20.5}, {"compound": "O=S(=O)(Nc1ccccn1)c1cc(Cl)ccc1Cl", "hERG current change (%, negative = inhibition) at 10uM": 9.22}, {"compound": "Cc1ccc(NC(=O)CCCc2ccccc2)nc1", "hERG current change (%, negative = inhibition) at 10uM": -7.9}, {"compound": "O=C(CSc1cccc[n+]1[O-])c1ccccc1Br", "hERG current change (%, negative = inhibition) at 10uM": 5.15}, {"compound": "CCOC(=O)N1CCC(NC(=O)COc2cc(=O)n(C)c3ccccc23)CC1", "hERG current change (%, negative = inhibition) at 10uM": 6.6}, {"compound": "O=C(NCc1ccncc1)C1CCN(C(=O)c2cccc(Cl)c2)CC1", "hERG current change (%, negative = inhibition) at 10uM": -6.43}, {"compound": "Cc1cc(C)c(S(=O)(=O)c2ccccc2)c(=O)[nH]1", "hERG current change (%, negative = inhibition) at 10uM": 20.6}, {"compound": "COc1ccccc1-n1c(SCC(=O)Nc2ccccc2F)nc2[nH]ncc2c1=O", "hERG current change (%, negative = inhibition) at 10uM": -32}, {"compound": "CC(=O)c1ccc(OCc2ccccc2)c(C)c1O", "hERG current change (%, negative = inhibition) at 10uM": 4.32}, {"compound": "O/N=C/c1cccnc1Sc1ccccc1", "hERG current change (%, negative = inhibition) at 10uM": -40.4}, {"compound": "O=C(Nc1ccc(N2CCOCC2)cc1)c1cccc(S(=O)(=O)N2CCCC2)c1", "hERG current change (%, negative = inhibition) at 10uM": 1.96}, {"compound": "Cn1nc(C(C)(C)C)c([N+](=O)[O-])c1C(=O)N1CCCCCC1", "hERG current change (%, negative = inhibition) at 10uM": 13.4}, {"compound": "COCCN(C(=O)C1CC(=O)N(Cc2ccc(C)cc2)C1)c1c(N)n(CC(C)C)c(=O)[nH]c1=O", "note": "(centres unmarked)", "hERG current change (%, negative = inhibition) at 10uM": -6.25}, {"compound": "Cc1cccnc1Nc1nc(-c2ccc(O)c(O)c2)cs1", "hERG current change (%, negative = inhibition) at 10uM": 0.613}, {"compound": "CC(=O)Nc1ccc(S(=O)(=O)N2CCN(Cc3ccccn3)CC2)cc1.O=C(O)C(=O)O", "hERG current change (%, negative = inhibition) at 10uM": -0.877}, {"compound": "C=CCOc1ccc(C(=O)NC2CCCCC2)cc1", "hERG current change (%, negative = inhibition) at 10uM": 5.59}, {"compound": "Cc1cccc2cc(C(c3nnnn3C3CCCC3)N3CCOCC3)c(=O)[nH]c12", "note": "(centres unmarked)", "hERG current change (%, negative = inhibition) at 10uM": 3.62}, {"compound": "C/C(=N\\Nc1nc(N2CCOCC2)nc(N2CCOCC2)n1)c1cccs1", "hERG current change (%, negative = inhibition) at 10uM": 2.06}, {"compound": "COCCn1c(C)cc(C(=O)CSc2nnc(-c3cccnc3)n2-c2ccccc2F)c1C", "hERG current change (%, negative = inhibition) at 10uM": 0.351}, {"compound": "CSc1nsc(SC)c1NC(=O)Nc1ccccn1", "hERG current change (%, negative = inhibition) at 10uM": -10}, {"compound": "CC(c1ccon1)N(C)Cc1cn(C)nc1-c1cccc(Cl)c1", "note": "(centres unmarked)", "hERG current change (%, negative = inhibition) at 10uM": -6.35}, {"compound": "COc1ccccc1NC(=O)C1=C(C)NC(=O)NC1c1cccs1", "note": "(centres unmarked)", "hERG current change (%, negative = inhibition) at 10uM": 8.54}, {"compound": "CC1(C)Cc2c(C#N)c(N)sc(=S)c2CS1", "hERG current change (%, negative = inhibition) at 10uM": 5.54}, {"compound": "Cc1ncoc1C(=O)Nc1ccc(Oc2ccccc2)cc1", "hERG current change (%, negative = inhibition) at 10uM": -38.8}, {"compound": "O=C(CNC(=O)c1ccccc1)N/N=C/c1ccc([N+](=O)[O-])s1", "hERG current change (%, negative = inhibition) at 10uM": -11.1}, {"compound": "C=CCN1C(=O)NC(c2ccc(OC)cc2)(C(F)(F)F)S/C1=C(\\C#N)c1nnc(N2CCOCC2)n1-c1ccccc1", "note": "(centres unmarked)", "hERG current change (%, negative = inhibition) at 10uM": -62.4}, {"compound": "Cc1ccc(C)c(NC(=O)c2c(Cl)nc3ccccn23)c1", "hERG current change (%, negative = inhibition) at 10uM": -0.767}, {"compound": "Cc1cccc(C(=O)Nc2c(C(=O)N(C)C)cnn2-c2ccccc2)c1", "hERG current change (%, negative = inhibition) at 10uM": 7.81}, {"compound": "Cc1ccc(NS(=O)(=O)c2ccc(OCC(=O)Nc3cccc([N+](=O)[O-])c3)c(C)c2)cc1", "hERG current change (%, negative = inhibition) at 10uM": -35.7}, {"compound": "CN(C)CCN=Cc1c(O)n(Cc2ccccc2)c(=O)c2ccccc12", "hERG current change (%, negative = inhibition) at 10uM": -52.2}, {"compound": "CC(C)Cn1c(N)c(C(=O)CSc2ccc3c(c2)OCCO3)c(=O)n(C)c1=O", "hERG current change (%, negative = inhibition) at 10uM": 6.28}, {"compound": "COC(=O)C1=C(C)N(Cc2ccccc2)C(=NCc2cc(OC)c(OC)c(OC)c2)N[C@H]1c1ccccc1", "hERG current change (%, negative = inhibition) at 10uM": -27.8}]}]}
